In the antibiotic and cytotoxicity screens of Wong et al. (2023):
Some of the results follow.

What was measured:
[1] = test system: HSkMC (human skeletal muscle cells); assay: cytotoxicity call (relative viability < 0.9); conditions: 10 µM
[2] = test system: HepG2; assay: cytotoxicity call (relative viability < 0.9); conditions: 10 µM
[3] = test system: S. aureus RN4220; assay: growth inhibition call (relative growth <= 0.2); conditions: 50 µM

SMILES | cytotoxicity call [1] | cytotoxicity call [2] | growth inhibition call [3]
COc1cccc(NC(=O)N(C)C[C@H]2Oc3ncc(C#Cc4ccncc4)cc3C(=O)N([C@H](C)CO)C[C@H]2C)c1 | inactive | active | inactive
COc1ccc(CN(C)C[C@H]2Oc3c(NC(=O)C4CCOCC4)cccc3C(=O)N([C@H](C)CO)C[C@@H]2C)cc1 | inactive | inactive | inactive
O=C(C[C@H]1C[C@@H]2c3cc(NC(=O)NC4CCCC4)ccc3O[C@@H]2[C@H](CO)O1)NCc1ccc(-c2ccccc2)cc1 | inactive | active | inactive
C[C@H](CO)N1C[C@H](C)[C@@H](CN(C)C(=O)Nc2ccc(C(F)(F)F)cc2)Oc2ccc(NS(=O)(=O)c3ccc(F)cc3)cc2C1=O | inactive | inactive | inactive
CCC(=O)N(C)C[C@H]1Oc2ncc(C#C[C@@H](C)O)cc2C(=O)N([C@H](C)CO)C[C@@H]1C | inactive | inactive | inactive
O=C(C[C@@H]1CC[C@H]2[C@@H](COC[C@@H](O)CN2C(=O)c2cccnc2)O1)NCC1CC1 | inactive | inactive | inactive
C[C@@H]1CCCCO[C@@H](CN(C)CC2CCCCC2)[C@H](C)CN([C@@H](C)CO)C(=O)c2cc(NS(=O)(=O)c3ccc(Cl)cc3)ccc2O1 | inactive | inactive | inactive
O=C(O)CSCC(=O)NC1CCSC1=O (centres undefined) | inactive | inactive | inactive
